Measured values reported in article PMC6919601, “Identification of Plasmodium dipeptidyl aminopeptidase allosteric inhibitors by high throughput screening” (PLoS ONE, 2019).
The whole screen tested about 110,000 compounds, of which about 230 (0.21%) showed an effect of 50% or more. Some of the results follow.

The compounds below were run against DPAP1 (Plasmodium falciparum, UniProt Q8IIJ9) (assay: primary screen, percent inhibition; read by cleavage of a fluorogenic dipeptide substrate; higher = more effect of the substance).
Chain of DPAP1 (Q8IIJ9 whole entry, looked up): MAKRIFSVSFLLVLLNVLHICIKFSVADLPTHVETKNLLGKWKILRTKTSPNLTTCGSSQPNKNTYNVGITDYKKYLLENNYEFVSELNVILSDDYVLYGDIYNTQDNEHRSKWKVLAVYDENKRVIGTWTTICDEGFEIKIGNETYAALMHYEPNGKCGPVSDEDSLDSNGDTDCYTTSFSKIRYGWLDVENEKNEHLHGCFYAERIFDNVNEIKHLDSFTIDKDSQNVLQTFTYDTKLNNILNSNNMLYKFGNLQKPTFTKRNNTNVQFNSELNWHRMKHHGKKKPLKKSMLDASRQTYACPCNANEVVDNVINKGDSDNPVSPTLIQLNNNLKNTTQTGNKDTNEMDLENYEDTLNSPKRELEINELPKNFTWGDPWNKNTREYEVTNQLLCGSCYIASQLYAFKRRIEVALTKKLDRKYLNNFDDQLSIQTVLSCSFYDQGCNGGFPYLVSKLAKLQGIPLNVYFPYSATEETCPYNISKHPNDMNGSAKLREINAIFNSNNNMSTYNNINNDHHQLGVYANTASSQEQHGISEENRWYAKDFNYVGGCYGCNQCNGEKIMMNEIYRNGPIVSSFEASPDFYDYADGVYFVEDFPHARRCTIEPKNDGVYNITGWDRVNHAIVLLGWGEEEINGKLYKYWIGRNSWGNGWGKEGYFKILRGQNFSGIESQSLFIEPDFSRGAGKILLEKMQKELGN
Parameters: species or system P. falciparum D10 trophozoite lysates; single well
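Also: 30 min substrate incubation versus DMSO and 10 µM JCP410 controls.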

SMILES | % Inhibition @ 10 uM [%]
O=C(O)Cn1c(SCC(=O)c2ccc(Br)cc2)nc2ccsc2c1=O | 4.49
CCOC(=O)N1CCN(S(=O)(=O)c2c(C)cc(C)cc2C)CC1 | 6.11
Cc1cc(C)nc(SCC(=O)Nc2ccc(Br)cn2)n1 | 2.45
O=[N+]([O-])c1ccc(-c2ccc(-c3nc(-c4ccccc4)c(-c4ccccc4)[nH]3)o2)cc1 | -0.216
Cc1nc(C2CC(=O)OC23CCCCC3)cs1 (stereo not drawn) | 3.15
Oc1ccc(CN2CCCCC2)c2cccnc12 | -0.551
COc1ccc(-c2cn3nc(N4CCC(C(=O)NCCN5CCCCC5)CC4)sc3n2)cc1 | 1.72
CCOC(=O)c1c(C)c(C(=O)NC(C)COC)c(C)n1Cc1ccccc1 (stereo not drawn) | -3.44
O=c1oc2ccccc2n1Cc1c(F)cccc1Cl | -0.725
COc1ccc2[nH]c3c(=O)n(Cc4ccc(C(=O)N5CCCC5)cc4)c(=S)[nH]c3c2c1 | 4.28
Cc1ccc(C)c(OCCCN2CCCC2)c1 | 1.57
CC(C)(C)c1ccc(C(=O)Nc2ncccn2)cc1 | 3.66
CN(CCNC(=O)c1nn(C)c2c1CSc1ccccc1-2)Cc1ccccc1 | -3.51
COc1ccc(N/C=C(/C#N)c2nc(-c3ccc(Cl)cc3)cs2)cc1 | 2.22
O=C1CS(=O)(=O)C(c2ccc(Cl)cc2Cl)N1c1ccc(Br)cc1 (stereo not drawn) | -5.41
COc1ccc2[nH]c3c(c2c1)CC(O)CC3 (stereo not drawn) | -2.39
COc1ccc(S(=O)(=O)N(C)CC(=O)NCCC2=CCCCC2)cc1 | -9.72
Cc1ccc(NC(=O)c2ccccc2)nc1 | 0.145
CCOc1ccccc1N1C(=O)C2C3C=CC(C4CC34)C2C1=O (stereo not drawn) | 2.67
Nc1c(C(=O)NCc2ccc(Cl)cc2)nnn1-c1ccc(OC(F)(F)F)cc1 | -1.85
O=C(NCC1CCCO1)c1nc(-c2ccc(Cl)cc2)n2c1CCCCC2 (stereo not drawn) | 0.244
CC1(C(=O)O)CCC(C(=O)N2CCc3ccccc32)C1(C)C (stereo not drawn) | -7.18

SMILES | % Inhibition @ 10 uM [%]
COc1ccc(C2(C)N(O)C(C)C(c3ccccc3)=[N+]2[O-])cc1 (stereo not drawn) | -0.0626
COc1ccccc1OCCSc1nc(-c2ccco2)nc2cc(=O)[nH]n12 | 2.97
O=C(CCN1C(=O)c2cccc3cccc(c23)C1=O)NCC1CCCO1 (stereo not drawn) | -1.06
S=C(c1ccncc1)N1CCOCC1 | -3.5
O=C(N/C(=C/C=C/c1ccccc1)C(=O)N1CCCCCC1)c1ccccc1 | 4.01
CC(NC(=O)CSCc1cnn(-c2ccccc2)c1-n1cccc1)c1ccccc1 (stereo not drawn) | -5.15
C/C(=C\c1ccccc1)CN1CCN(c2ccc(Cl)cc2)CC1 | 7.53
CCCC1(O)C(C)C(c2ccccc2)NC(c2ccccc2)C1C (stereo not drawn) | -4.98
CC1CN(S(=O)(=O)c2ccc3c(c2)C(=O)c2ccccc2C3=O)CC(C)O1 (stereo not drawn) | 14.8
COc1cccc(C(=O)N(Cc2nc(-c3ccccc3)no2)C(C)C)c1OC | -1.54
CCOc1ccc(CCNC(=O)Cn2ncc3c4cc(C)ccc4nc-3c2O)cc1OCC | 7.12
CCC(C)NC(=O)c1ccc(Cl)c(Cl)c1 (stereo not drawn) | 4.17
O=C(O)c1ccc2c(c1)C(=O)N(NC(=O)c1ccncc1)C2=O | 1.64
N#CCNC(=O)C(CCc1ccccc1)NC(=O)c1ccc(-c2ccccc2Cl)cc1 (stereo not drawn) | -0.207
CCOc1nc2c(ncn2C)c(=O)n1C | -1.22
CNC(=O)/C(=C/c1ccccc1F)NC(=O)c1ccc(C)cc1 | -3.26
CC1(C)CC(=O)C2=C(C1)OC(N)=C(C#N)C2c1cccc([N+](=O)[O-])c1 (stereo not drawn) | -1.8
CNC(=O)/C(=C\c1ccc(Br)cc1)NC(=O)c1ccccc1 | 2.67
COc1ccc(C(=O)Nc2ccc(C#N)cc2)cc1 | -2.6
CN1CCCN(C2CCC(c3ccccc3)CC2)CC1 (stereo not drawn) | -5.11
N#CC1=C(N)OC2=C(C(=O)CC(c3ccccc3)C2)C1c1ccc(F)cc1 (stereo not drawn) | 3.54
c1ccc2cc(OCCN3CCOCC3)ccc2c1 | -7.25

SMILES | % Inhibition @ 10 uM [%]
OCCC/N=C/c1c(O)n(-c2c(Cl)cccc2Cl)c2ccccc12 | -10.4
CC1=C(C(=O)OCC2CCCCC2)C(c2ccc(Cl)cc2)NC(=O)N1 (stereo not drawn) | 3.42
CN(C)c1cc(=O)n2c(n1)SCCC2 | 0.558
O=C(CCc1c[nH]c2ccccc12)N1CCn2c(nc3ccccc32)C1 | 5.53
CCC(C)NC(=O)C1CCN(C(=O)c2cc3sccc3n2C)CC1 (stereo not drawn) | -5.19
CCOC(=O)/C(C#N)=C/c1c(Oc2ccc(Br)cc2)nc2c(C)cccn2c1=O | 2
COc1ccc(CN2CCN(Cc3cccc(F)c3)CC2)cc1OC | -7.09
O=S(=O)(c1ccc(Br)s1)N1CCCN(Cc2c(Cl)cccc2Cl)CC1 | 1.91
Cc1cc(O)c(NC(=O)c2ccccc2Br)cc1C | -3.28
CC1CCC2C(=O)N(CNc3ccc(Br)cc3)C(=O)C2C1 (stereo not drawn) | 0.389
COc1ccc2c(Sc3ccc(C)cc3)c(C(=O)N3CCOCC3)[nH]c2c1 | -3.1
CN(Cc1ccccc1)C(=O)Cn1cnc2onc(-c3ccc(Cl)cc3)c2c1=O | -3.31
Cc1cc(NCCCN2CCOCC2)nc(-c2ccccc2O)n1 | -5.78
CCC(=O)Nc1ccc(NC(=O)COc2cccc(C)c2)cc1 | 6.65
Cc1cc(C(F)(F)F)nc(NC(C)c2ccccc2)n1 (stereo not drawn) | -7.33
O=c1c2cccnc2n(Cc2ccccc2F)c(=O)n1CCc1c[nH]c2ccccc12 | 7.84
OC1(c2ccc(Br)cc2)CCN(C2Cc3ccccc3C2)CC1 | 1.88
C=CCOc1ccc2ccccc2c1CNCc1cccnc1 | -5.06
NC(=O)CSc1nc(SCC(N)=O)c2cnn(-c3ccccc3)c2n1 | -0.661
COc1ccc2nc(C)c(CN(C)C3CCN(C)CC3)c(O)c2c1 | -4.93
CCc1ccccc1NC(=O)C(C)SCc1ccccc1 (stereo not drawn) | 0.851
CCOC(=O)C1=C(c2ccccc2)Nc2ncnn2C1c1ccc(OC)cc1 (stereo not drawn) | 0.487
